In the supplement of paper PMC3334620:
Over roughly 33,000 sequences, “E-score (-0.5 to 0.5)” has its median near -0.054; the highest 2% begin near 0.39. The list shows a part of the results.

What follows are sequences tested against Ylr278c (UniProt Q05854) (assay: PBM E-score (8-mer binding enrichment) (E-score (-0.5 to 0.5)); higher = stronger / more preferred TF binding; most listed sequences are background and not binding sites). Conditions: protein concentration: 200 nM; construct: GST-DNA-binding domain.
Method: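 Universal 'all 10-mer' protein binding microarrays (Agilent AMADID 015681) probed with GST-tagged S. cerevisiae TFs (full-length or DBD) made by in vitro transcription/translation (PURExpress), about 100-200 nM. Bound TF was detected with fluorescent anti-GST. Each ungapped 8-mer (which stands for itself and its reverse complement) is scored by the PBM enrichment score (E-score), a modified Wilcoxon-Mann-Whitney statistic from -0.5 to +0.5, computed with the Universal PBM Analysis Suite. Scale: above 0.35 generally sequence-specific binding.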

Row | Sequence | PBM E-score
1 | ACAAAGTA | -0.127
2 | AGTACATC | -0.137
3 | ACGCCCAA | 0.00358
4 | CGGCTGGA | 0.0769
5 | AGTAATAC | 0.0413
6 | AAAGTAAC | -0.00452
7 | ACCTCTAG | -0.0549
8 | AGTGAATA | -0.026
9 | GGCGCAAC | 0.131
10 | GTGCACTA | -0.0122
11 | AAGGAAGG | -0.305
12 | GCTGTCAA | -0.0973
13 | TCAGAACA | -0.104
14 | CACTAGTC | -0.113
15 | CCCACGGG | 0.00912
16 | ACCAGTGC | -0.264
17 | AAGTGAGT | -0.165
18 | CGGTAAGA | 0.115
19 | CAAGCTCC | 0.168
20 | AACTGTGC | -0.198
21 | CATTGCGC | -0.0283
22 | GGCACCAC | -0.00963
23 | AATTCCCT | -0.103
24 | TAAGTATA | -0.0135

Row | Sequence | PBM E-score
25 | ATAGACCA | -0.224
26 | TCCCCAGA | -0.187
27 | ATCACCGA | 0.204
28 | GCGAGTAA | 0.0471
29 | CCCTGTCA | -0.228
30 | GGTTGTTA | -0.0132
31 | CGAACCAG | -0.0147
32 | AATGCAAT | -0.294
33 | AGGGCAGA | -0.29
34 | ACCCTGGA | -0.201
35 | TCTACCAA | -0.209
36 | ATCGAGCG | 0.109
37 | GATCTACA | -0.0198
38 | ACAGACCT | -0.106
39 | ACGGTTGA | -0.187
40 | AGTACCCG | -0.0434
41 | AAAATTCA | 0.0225
42 | CAAAGGTC | -0.224
43 | AATCGGAT | 0.384
44 | CCAGTCGA | -0.198
45 | GGGAACGA | 0.025
46 | AGTCTTCG | -0.22
47 | CAGTGGGA | -0.0876
48 | CATCAAAC | -0.0628

Row | Sequence | PBM E-score
49 | GGGTTGGA | 0.0191
50 | CCCACAAA | -0.0205
51 | CTTACGGA | 0.166
52 | CGGAGAAG | 0.453
53 | AAATAGTG | -0.154
54 | AGTAAGAT | -0.0177
55 | AACTCTCA | -0.214
56 | CTCCTGGC | 0.0905
57 | GACTGGAA | -0.161
58 | CAGTGTTC | -0.0124
59 | AAATCTGT | -0.0526
60 | AAAATAGT | -0.187
61 | ATCTCGTC | 0.0476
62 | CCACTGCG | 0.0129
63 | AGCCCAAG | -0.102
64 | GAGCGGCC | 0.199
65 | ACAAGCGA | -0.0176
66 | CCTGATAC | -0.0837
67 | GATCTCTA | -0.191
68 | CCTTCGAC | -0.313
69 | ACTTAACG | -0.202
70 | CACGCTGC | -0.0562
71 | CAAGAGGC | -0.161
72 | AGGTCCAC | -0.0934

Row | Sequence | PBM E-score
73 | AAAGCGGT | 0.115
74 | ATGTTCGC | -0.126
75 | CACCTATG | -0.0846
76 | ACCTGTCA | -0.126
77 | GCGTGCTA | -0.224
78 | CTGCTCTA | -0.197
79 | ATAGATGG | -0.132
80 | CATGTTCC | 0.0682
81 | ACACCTAG | -0.13
82 | CGGCACGA | 0.15
83 | CAATTATA | -0.207
84 | CGCCTTTA | -0.0616
85 | CGGTAGTA | 0.098
86 | GCTTGTGA | -0.308
87 | CCAGTCTA | -0.232
88 | GCTGCCTA | -0.0677
89 | ACGGGTGC | -0.0805
90 | AAATCTAC | -0.00444
91 | AATATATG | 0.0736
92 | AGTACTCC | 0.279
93 | CGTCAGCA | -0.173
94 | ACACGGGC | 0.161
